Data on 31 variants can be found in the GPR68 mutational scans of Howard et al. (2025).

B1: GPR68, Q15743 (parent)
chain: MGNITADNSSMSCTIDHTIHQTLAPVVYVTVLVVGFPANCLSLYFGYLQIKARNELGVYLCNLTVADLFYICSLPFWLQYVLQHDNWSHGDLSCQVCGILLYENIYISVGFLCCISVDRYLAVAHPFRFHQFRTLKAAVGVSVVIWAKELLTSIYFLMHEEVIEDENQHRVCFEHYPIQAWQRAINYYRFLVGFLFPICLLLASYQGILRAVRRSHGTQKSRKDQIQRLVLSTVVIFLACFLPYHVLLLVRSVWEASCDFAKGVFNAYHFSLLLTSFNCVADPVLYCFVSETTHRDLARLRGACLAFLTCSRTGRAREAYPLGAPEASGKSGAQGEEPELLTKLHPAFQTPNSPGSGGFPTGRLA

The variants in data set [1] derive from B1. The data set can be described thus: cAMP reporter score (Enrich2 score, wild type = 0); higher = more signal; HEK293T, FACS bins.
Data set [2] covers variants of B1. The data set can be described thus: surface expression score (Enrich2 score, wild type = 0); higher = more signal; HEK293T, FACS bins.

The least precise scores are not listed. Not listed are two conditions whose scores span a narrow range. Names with del lack the residues named; names with ins carry added residues between the positions named. For part of these data: The data file names ogerin without a concentration.

As for Y80M, the cAMP reporter score in data set [1] (pH 5.5) was -1.26; in data set [1] (pH 6), -0.656; in data set [1] (pH 6, modulator: ogerin) it was -2.23; in data set [1] (pH 6.5, modulator: ogerin) it was -0.912. The surface expression score in data set [2] amounted to 1.33.

Regarding Y80H, the cAMP reporter score is -1.17 in data set [1] (pH 5.5); -0.428 in data set [1] (pH 6); -1.48 in data set [1] (pH 6, modulator: ogerin); -1.26 in data set [1] (pH 6.5, modulator: ogerin). In addition, the surface expression score in data set [2] is 0.485.

As to Y80P, the cAMP reporter score is -1.59 in data set [1] (pH 5.5); -0.929 in data set [1] (pH 6); -1.7 in data set [1] (pH 6, modulator: ogerin); -0.903 in data set [1] (pH 6.5, modulator: ogerin). In addition, the surface expression score in data set [2] is -0.743.

For the variant Y80C, the cAMP reporter score was -0.762 in data set [1] (pH 5.5); -0.371 in data set [1] (pH 6); -0.705 in data set [1] (pH 6, modulator: ogerin); -0.81 in data set [1] (pH 6.5, modulator: ogerin). In addition, the surface expression score in data set [2] is -0.5.

For the variant Y80S, the cAMP reporter score in data set [1] (pH 5.5) was -1.62; in data set [1] (pH 6) it was -1.47; in data set [1] (pH 6, modulator: ogerin) it was -1.99; in data set [1] (pH 6.5, modulator: ogerin) it was -1.64. For the same variant, the surface expression score in data set [2] was 0.205.

On to Y80I, for which the cAMP reporter score was -2.13 in data set [1] (pH 5.5); -1.33 in data set [1] (pH 6); -0.989 in data set [1] (pH 6, modulator: ogerin); -1.49 in data set [1] (pH 6.5, modulator: ogerin). In addition, in data set [2], the surface expression score is -1.23.

As to Y80E, the cAMP reporter score in data set [1] (pH 5.5) is -1.73; in data set [1] (pH 6), -1.76; in data set [1] (pH 6, modulator: ogerin), -1.58; in data set [1] (pH 6.5, modulator: ogerin), -1.07. In data set [2], the surface expression score amounted to 0.

Turning to Y80D, the cAMP reporter score was -1.14 in data set [1] (pH 5.5); -0.572 in data set [1] (pH 6); -1.25 in data set [1] (pH 6, modulator: ogerin); -1.12 in data set [1] (pH 6.5, modulator: ogerin). Further, the surface expression score in data set [2] was -0.51.

Turning to Y80G, the cAMP reporter score was -1.16 in data set [1] (pH 5.5); -1.92 in data set [1] (pH 6); -1.32 in data set [1] (pH 6, modulator: ogerin); -1.14 in data set [1] (pH 6.5, modulator: ogerin). In data set [2], the surface expression score was -0.533.

Consider Y80Q, for which the cAMP reporter score is -1.68 in data set [1] (pH 5.5); -1.02 in data set [1] (pH 6); -3.42 in data set [1] (pH 6, modulator: ogerin); -2.15 in data set [1] (pH 6.5, modulator: ogerin). The surface expression score in data set [2] is 0.302.

For the variant H84del, the cAMP reporter score in data set [1] (pH 5.5) is -0.112; in data set [1] (pH 6), -0.6; in data set [1] (pH 6, modulator: ogerin), -0.974; in data set [1] (pH 6.5, modulator: ogerin) it was -1.05. Also, in data set [2], the surface expression score turned out to be 1.51.

For D91_L92del, the cAMP reporter score in data set [1] (pH 5.5) is -1.96; in data set [1] (pH 6) it was -1.11; in data set [1] (pH 6, modulator: ogerin), -1.64; in data set [1] (pH 6.5, modulator: ogerin), -1.21. The surface expression score in data set [2] is -1.13.

As for H89_G90insGS, the cAMP reporter score in data set [1] (pH 5.5) is -1.08; in data set [1] (pH 6), -0.158; in data set [1] (pH 6, modulator: ogerin) it was -0.597; in data set [1] (pH 6.5, modulator: ogerin), -0.113. The surface expression score in data set [2] is -1.32.

As for H84T, the cAMP reporter score in data set [1] (pH 5.5) was 0.517; in data set [1] (pH 6) it was -0.023; in data set [1] (pH 6, modulator: ogerin) it was -1.61; in data set [1] (pH 6.5, modulator: ogerin), -0.248. Besides, the surface expression score in data set [2] turned out to be 1.28.

Consider H84N, for which the cAMP reporter score in data set [1] (pH 5.5) was -0.366; in data set [1] (pH 6, modulator: ogerin) it was -0.557; in data set [1] (pH 6.5, modulator: ogerin) it was 0.168. Moreover, the surface expression score in data set [2] is -0.547.

H84K: the cAMP reporter score is -0.162 in data set [1] (pH 5.5); -1.31 in data set [1] (pH 6); -0.933 in data set [1] (pH 6, modulator: ogerin); -1.19 in data set [1] (pH 6.5, modulator: ogerin). The surface expression score in data set [2] was 0.597.

Turning to H84Y, the cAMP reporter score in data set [1] (pH 5.5) was 0.284; in data set [1] (pH 6), -0.702; in data set [1] (pH 6, modulator: ogerin), 0.15; in data set [1] (pH 6.5, modulator: ogerin) it was -0.858. Besides, the surface expression score in data set [2] is -0.575.

Consider H84M, for which the cAMP reporter score in data set [1] (pH 5.5) is -0.292; in data set [1] (pH 6) it was -0.54; in data set [1] (pH 6, modulator: ogerin) it was -0.921; in data set [1] (pH 6.5, modulator: ogerin), -1.05. Also, the surface expression score in data set [2] is -0.666.

On to H84C, for which the cAMP reporter score in data set [1] (pH 5.5) is -0.637; in data set [1] (pH 6, modulator: ogerin), -0.139. Besides, in data set [2], the surface expression score was -2.13.

As for H84Q, the cAMP reporter score in data set [1] (pH 5.5) is 0.592; in data set [1] (pH 6), -0.032; in data set [1] (pH 6, modulator: ogerin), 0.297; in data set [1] (pH 6.5, modulator: ogerin) it was -0.445. For the same variant, the surface expression score in data set [2] turned out to be 0.951.

On to H84W, for which the cAMP reporter score is -0.849 in data set [1] (pH 5.5); -0.797 in data set [1] (pH 6); -1.04 in data set [1] (pH 6, modulator: ogerin); -1.22 in data set [1] (pH 6.5, modulator: ogerin). The surface expression score in data set [2] was -0.721.

Turning to H84F, the cAMP reporter score is -0.396 in data set [1] (pH 5.5); 0.082 in data set [1] (pH 6); 0.09 in data set [1] (pH 6, modulator: ogerin); -0.58 in data set [1] (pH 6.5, modulator: ogerin).

Regarding H84V, the cAMP reporter score is -0.873 in data set [1] (pH 5.5); -0.838 in data set [1] (pH 6); -2.05 in data set [1] (pH 6, modulator: ogerin); -0.97 in data set [1] (pH 6.5, modulator: ogerin). Further, the surface expression score in data set [2] is -0.062.

Take H84E: the cAMP reporter score in data set [1] (pH 5.5) was 0.712; in data set [1] (pH 6), 0.004; in data set [1] (pH 6, modulator: ogerin), 1.4. In addition, the surface expression score in data set [2] is 1.15.

H84D: the cAMP reporter score in data set [1] (pH 5.5) was 0.301; in data set [1] (pH 6) it was 3.85; in data set [1] (pH 6, modulator: ogerin), 1.01; in data set [1] (pH 6.5, modulator: ogerin), 3.52. Besides, the surface expression score in data set [2] stood at 1.7.

Consider H84P, for which the cAMP reporter score in data set [1] (pH 5.5) was -2.07; in data set [1] (pH 6), -0.954; in data set [1] (pH 6, modulator: ogerin), -2.3; in data set [1] (pH 6.5, modulator: ogerin), -1.12. In addition, the surface expression score in data set [2] came out at 1.67.

For H84S, the cAMP reporter score is 0.44 in data set [1] (pH 5.5); -0.61 in data set [1] (pH 6); 0.168 in data set [1] (pH 6, modulator: ogerin); 0.066 in data set [1] (pH 6.5, modulator: ogerin). Moreover, the surface expression score in data set [2] stood at 0.357.

With H84L, the cAMP reporter score in data set [1] (pH 5.5) was -1.32; in data set [1] (pH 6), -0.7; in data set [1] (pH 6, modulator: ogerin) it was -1.19; in data set [1] (pH 6.5, modulator: ogerin) it was -1.54. For the same variant, in data set [2], the surface expression score is -1.14.

For H84G, the cAMP reporter score in data set [1] (pH 5.5) was found to be 0.302; in data set [1] (pH 6) it was 0.947; in data set [1] (pH 6, modulator: ogerin), 0.708; in data set [1] (pH 6.5, modulator: ogerin), 1.01. The surface expression score in data set [2] was found to be 0.861.

H84I: the cAMP reporter score was -1.13 in data set [1] (pH 5.5); -0.444 in data set [1] (pH 6); -1.91 in data set [1] (pH 6, modulator: ogerin); -1.2 in data set [1] (pH 6.5, modulator: ogerin). Besides, in data set [2], the surface expression score is -0.906.

Take H84R: the cAMP reporter score in data set [1] (pH 5.5) is 0.557; in data set [1] (pH 6), -0.88; in data set [1] (pH 6, modulator: ogerin), -0.382; in data set [1] (pH 6.5, modulator: ogerin), -0.725. For the same variant, the surface expression score in data set [2] worked out at 2.
